# Over roughly 110,000 compounds, “z-score” has its median near -0.1; the highest 2% begin near 2. This is one part of the list. Calls of active or inactive are those of the source.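 The calls were made as follows: active = z-score in the third read window above 3 or below -3; inactive = the rest.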
# Target: Metabotropic glutamate receptor 8 (Rattus norvegicus) (UniProt P70579)
# Test: mGluR8 Gi/Go-coupled signaling modulation – cell-based, rat, thallium flux, HTS, primary screen (AID 488969)
# Details: HEK293 rat mGluR8, GIRK (G protein-gated inwardly rectifying potassium channel) thallium flux, FluoZin2; at 10 µM; stronger effect = higher value; submaximal glutamate (EC20) added with thallium
# Sequence of UniProt P70579 (P70579 whole entry, looked up): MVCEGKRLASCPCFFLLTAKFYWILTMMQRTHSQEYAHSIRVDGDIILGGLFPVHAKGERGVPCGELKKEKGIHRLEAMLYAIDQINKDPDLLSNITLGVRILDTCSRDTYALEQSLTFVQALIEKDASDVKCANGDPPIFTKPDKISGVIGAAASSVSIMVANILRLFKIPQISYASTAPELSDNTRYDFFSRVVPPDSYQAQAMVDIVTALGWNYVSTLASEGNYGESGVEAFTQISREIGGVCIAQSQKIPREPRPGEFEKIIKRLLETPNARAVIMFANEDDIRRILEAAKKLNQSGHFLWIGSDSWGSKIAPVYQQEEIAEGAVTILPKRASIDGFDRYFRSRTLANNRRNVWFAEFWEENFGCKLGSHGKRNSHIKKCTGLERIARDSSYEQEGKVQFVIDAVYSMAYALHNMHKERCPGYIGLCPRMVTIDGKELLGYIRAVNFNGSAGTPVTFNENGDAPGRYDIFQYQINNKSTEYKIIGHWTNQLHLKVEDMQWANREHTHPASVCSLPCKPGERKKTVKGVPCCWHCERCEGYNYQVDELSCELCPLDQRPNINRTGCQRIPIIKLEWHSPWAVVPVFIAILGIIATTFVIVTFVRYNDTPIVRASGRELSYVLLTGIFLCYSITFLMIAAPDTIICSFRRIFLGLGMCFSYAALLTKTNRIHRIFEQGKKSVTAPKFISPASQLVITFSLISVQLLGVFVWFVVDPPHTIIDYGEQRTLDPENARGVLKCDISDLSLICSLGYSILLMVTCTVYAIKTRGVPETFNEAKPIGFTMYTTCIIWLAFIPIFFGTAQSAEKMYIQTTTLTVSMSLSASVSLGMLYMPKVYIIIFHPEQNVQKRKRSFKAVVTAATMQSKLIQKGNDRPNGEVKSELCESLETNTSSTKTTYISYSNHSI
row,Compound,z-score
1,CC(C)NCC(O)Cn1c2c(c3ccccc31)CCc1c-2cnn1-c1ccccc1 (configuration not stated),-0.477
2,Cc1ccc(-c2nc(C3CCCN(S(=O)(=O)c4ccc(C(C)(C)C)cc4)C3)no2)cc1 (configuration not stated),-0.0931
3,CC(=O)Nc1ccc(S(=O)(=O)N(C)CC(=O)NC2=NCCS2)cc1,0.262
4,O=C(CCn1nnc2ccccc2c1=O)N[C@@H](Cc1ccccc1)C(=O)O,1.64
5,CCOC(=O)N1CCC(NC(=O)c2cc3c(-c4ccc(Cl)cc4)nn(C)c3s2)CC1,-1.79
6,O=C(CSc1nccn1-c1ccc(Cl)cc1)Nc1ccc2c(c1)OCO2,-0.00407
7,Cc1cc2c(=O)[nH]cnc2s1,-0.0786
8,Clc1ccccc1CSC1=NCCCN1,0.573
9,CSc1c(CC(=O)Nc2ccc(F)cc2)n(Cc2ccccc2)c2ccccc12,0.035
10,O=C(O/N=C\c1ccc(N2CCOCC2)c([N+](=O)[O-])c1)c1ccc(F)cc1,-0.494
11,CCOC(=O)C(Sc1ncn[nH]1)c1ccccc1 (configuration not stated),-0.105
12,CC(C)Cn1c(SC(C)C(=O)Nc2ccc(N3CCOCC3)cc2)nc2ccccc21 (configuration not stated),-0.171
13,O=C(c1ccc(Cn2cc(Br)cn2)cc1)N1CCN(c2ccccc2)CC1,-0.355
14,COC(=O)c1ccc(/C=N/OCC(=O)NC2CCCCCCC2)cc1,-0.201
15,COc1ccc(CN2CCc3ccccc3C2)c(OC)c1OC,0.59
16,CN(C)C(=O)N1CCC(C(=O)NCc2ccc(F)cc2)CC1,0.581
17,Cc1c(NC(C)c2cc(Cl)ccc2O)c(=O)n(-c2ccccc2)n1C (configuration not stated),-0.253
18,O=C(CC1CCCCC1)Nc1ncn[nH]1,1.11
19,CCC(Oc1ccccc1)C(=O)NCc1cccnc1 (configuration not stated),1.55
20,CCCCSc1nnc(-c2ccccc2)c2ccccc12,-0.355
21,CCOc1ccc(N2C(=O)C3Sc4[nH]c(=O)sc4C(/C=C/c4ccccc4)C3C2=O)cc1 (configuration not stated),0.209
22,CCOc1ccc(NC(=O)Nc2cc(C)on2)cc1,0.168
23,COC(=O)Cn1c(=NC(=O)c2ccc(OC)cc2)sc2cc(OC)ccc21,-0.189

row,Compound,z-score
1,C=CCn1c(SCC(=O)Nc2nccs2)nnc1-c1cc2cccc(OC)c2o1,-0.858
2,CC(Sc1nnc(-c2cc3ccccc3o2)n1-c1ccccc1)C(=O)O (configuration not stated),-0.674
3,Cc1[nH]n(-c2ccccc2)c(=O)c1C(c1ccc(C(=O)O)cc1)c1c(C)[nH]n(-c2ccccc2)c1=O,-0.173
4,Cc1ccc(-c2n[nH]c(=S)n2/N=C/c2ccc(C)s2)cc1,2.29
5,O=C(COC(=O)c1cnccn1)NCc1ccccc1,0.135
6,CCCCC(=O)N(c1ccc(OC)cc1)C1C=CS(=O)(=O)C1 (configuration not stated),0.251
7,COc1ccccc1CC(=O)Nc1cc(Cl)ccc1O,-0.628
8,COc1ccccc1NC(=O)C(C)NS(=O)(=O)c1ccc(Cl)cc1 (configuration not stated),-0.0766
9,Cc1nc2ccccc2nc(C)c1=NOCc1ccccc1Cl,-0.097
10,CCCCC12CN3CCN(CC(C3)/C1=N\NC(=O)Nc1ccccc1)C2,0.454
11,COc1cc(/C=C/C(=O)NCc2cccnc2)cc(OC)c1OC,1.92
12,O=C(CSc1nn(-c2ccccc2)c(=S)s1)NC(=O)NCc1ccco1,-0.242
13,CC1=C(C(=O)NCc2ccccc2)C(c2ccccc2OCC(N)=O)NC(=O)N1 (configuration not stated),0.226
14,COCCNC(=O)CN1C(=O)CC(C)(C)S(=O)(=O)c2ccccc21,1.51
15,Cc1cc(Cl)ccc1NC(=O)CCCN1C(=O)CCC1=O,-0.47
16,O=C(NCCc1ccc(Cl)cc1)C1CCC(=O)N1Cc1ccccc1Cl (configuration not stated),-0.0695
17,Cc1ccc(/C(N)=N/OC(=O)C23CC4CC(CC(C4)C2)C3)cc1,-0.54
18,C=C(C(=O)c1ccccc1)C(C)CC(=O)c1ccccc1 (configuration not stated),-0.524
19,CCc1cccc(CC)c1N(COC)C(=O)Cn1ccccc1=N,1.21
20,CCOC(=O)c1cn(CC)c2cc(N3CCOCC3)c(F)cc2c1=O,0.821
21,O=S(=O)(CC(O)COc1ccccc1Cl)c1ccccc1 (configuration not stated),-0.286
22,CNC(=O)C12CC3CC(CC(Cl)(C3)C1)C2,-0.127
23,COc1ccc(NC(=O)C(=O)NCCC2=CCCCC2)c(OC)c1,-0.33

row,Compound,z-score
1,CCCCN(CC)C(=S)Nc1ccc2nc3n(c(=O)c2c1)CCCCC3,0.396
2,CCOC(=O)CSc1nnc(NC(=O)c2cccc(S(=O)(=O)N3CCCCC3)c2)s1,-0.208
3,COC(=O)c1ccc(OC(=O)c2cccnc2)cc1,-0.0168
4,CCn1c(CNC(=O)c2ccc(OC)cc2)nnc1SCC(=O)c1ccccc1,-0.00336
5,O=C(O)CCC(=O)Nc1nnc(C(F)(F)F)s1,-0.524
6,O=C(N/C(=C/c1cn(-c2ccccc2)nc1-c1ccccc1)C(=O)N1CCOCC1)c1ccccc1,-0.166
7,CCC(=O)Nc1cccc(Br)c1,0.0987
8,O=C(COc1ccccc1)Nc1nnc(-c2ccc3c(c2)CCCC3)o1,1.27
9,O=C1c2ccccc2C(=O)c2c1cccc2N1CCOCC1,-0.78
10,CC1(C)CC(=O)C(/C=N/c2ncccc2C(=O)O)=C(O)C1,-1.37
11,NC/C(=N\O)c1ccc(Cl)cc1Cl,-0.295
12,CC(=O)N1CCN(CCN=CC2=C(O)CC(C)(C)CC2=O)CC1,-0.0249
13,CCCc1[nH]n(-c2ccc([N+](=O)[O-])cc2)c(=O)c1C=NCCc1c[nH]c2ccccc12,0.0152
14,COc1ccccc1NS(=O)(=O)c1cc(NC(=O)CCC(=O)c2cccs2)ccc1Cl,-0.461
15,Cc1ccccc1NC(=O)C1CCN(c2cc(-c3ccccc3)nc3ncnn23)CC1,-2.63
16,COc1ccccc1/C=C1\CCCC2=C1Nc1nnnn1C2c1ccccc1OC (configuration not stated),-0.404
17,Cc1cc(NC(=O)CCC(=O)N(c2ccccc2)C(C(=O)NC2CCCCC2)c2cccs2)no1 (configuration not stated),-0.191
18,O=C(CN1C(=O)C2C3C=CC(C3)C2C1=O)Nc1ccc(C(=O)O)cc1 (configuration not stated),-0.000529
19,CCOC(=O)c1c(NC(=O)OC)sc(C(=O)N(C)C)c1C,0.8
20,CCC(C)N=CC1=C(O)CC(c2ccccc2)CC1=O (configuration not stated),2.05
21,CCn1cc(C(=O)NC2CCc3ccccc32)c(=O)c2ccc(C)nc21 (configuration not stated),0.726
22,CSc1ccc(C2NC(=O)c3c(sc4c3CCN(C)C4)N2)cc1 (configuration not stated),0.138
23,CN(C1=NC(=O)C(CC(=O)Nc2ccc(Br)cc2)S1)c1ccc(O)cc1 (configuration not stated),-1.5

row,Compound,z-score
1,O=C(Nc1cccn2ncnc12)c1ccccc1,-0.00448
2,Cc1ccccc1OCc1nc2ccccc2c(=O)n1/N=C/c1cccc([N+](=O)[O-])c1,-0.0563
3,Cc1cccc(N2CCN(S(=O)(=O)c3ccc4c(c3)CCN4C(=O)CCC(=O)O)CC2C)c1 (configuration not stated),-0.0853
4,CC(=O)NC(Cc1ccc(C)cc1)C(=O)NC1CCN(C(=O)c2cnccn2)CC1 (configuration not stated),0.0734
5,Cc1c(-c2cccc(Cl)c2)nc2ccccc2c1C(=O)OCC(=O)Nc1ccc2c(c1)OCO2,-0.35
6,COc1ccnc(N=CNOCc2ccc(C)cc2)c1C#N,1.13
7,COc1ccccc1-n1cnc(N)c1C(=O)c1ccccc1,-0.974
8,CCC(Oc1ccccc1)C(=O)O/N=C(\N)c1ccc(OC)c(OC)c1 (configuration not stated),0.297
9,CCOc1ccc(N2C(=O)c3ccccc3C2O)cc1 (configuration not stated),active: 8.14
10,C/C(=N\NC(=O)CCn1nc(C)cc1C)C(C)(C)C,-0.219
11,Cc1cc(Br)ccc1OCc1nc(-c2cccnc2)no1,0.725
12,CC(=O)Nc1ccc(S(=O)(=O)NCCNC(=O)c2ccccc2F)cc1,0.374
13,NC(=O)CC12CC3CC(C1)CC(CC(N)=O)(C3)C2,-0.186
14,COc1ccc(NS(=O)(=O)c2ccc(OC)c(N(C)S(=O)(=O)c3ccc(Cl)cc3)c2)cc1,-0.217
15,Cc1cc(C)c(C#N)c(SCCS(=O)(=O)Cc2ccccc2)n1,-0.092
16,NC(=O)c1c(NC(=O)c2ccc(S(=O)(=O)N3CCOCC3)cc2)sc2c1CCCCC2,-0.139
17,Cc1ccc(C(=O)Nc2ncnc3sc4c(c23)CCCCC4)cc1,0.137
18,CCOc1ccc(N2C(=O)CC(Sc3ncccn3)C2=O)cc1 (configuration not stated),-0.0351
19,Cc1ccc2[nH]c3c(=S)nc[nH]c3c2c1,0.00346
20,Cc1cccc(/C=C(\c2nc3ccccc3[nH]2)S(=O)(=O)c2ccccc2)c1,-0.268
21,COC(=O)c1c(NC(=O)C2CC2)sc2c1CCN(C(C)=O)C2,-0.169
22,COc1ccc(OC)c(Nc2ncnc3sc(-c4ccccc4)cc23)c1,-0.307
23,CNc1nc(N2CCc3ccccc32)ncc1F,0.501

row,Compound,z-score
1,O=C(CN1C(=O)c2ccccc2S1(=O)=O)NCc1ccccn1,0.0386
2,CCC(=O)N1CCc2cc(S(=O)(=O)N3CCc4ccccc4C3)ccc21,0.156
3,Cc1ccc(C)c(S(=O)(=O)NCc2ccc(C(=O)N3CCCCC3C)cc2)c1 (configuration not stated),-0.244
4,O=C(CNCC1CCCO1)N1CCCc2ccccc21 (configuration not stated),-0.388
5,Cc1cc(NC(=O)CN2C(=O)NC(C)(c3ccc(OC(F)F)cc3)C2=O)no1 (configuration not stated),-0.134
6,CCOc1ccc(CN(CCO)CCO)cc1[N+](=O)[O-],-0.174
7,c1ccc(CCCNc2ncccn2)cc1,0.568
8,COc1cccc(C(=O)N2CCN(S(C)(=O)=O)CC2)c1,-0.0391
9,CCOC(=O)c1c(C)[nH]c(C(=O)COC(=O)CSC)c1C,-0.0983
10,O=C(NCc1ccccc1)c1sc(=S)n2c1[nH]c(=O)c1ccccc12,-0.316
11,Cc1ccc(S(=O)(=O)N2CCCOC2CNC(=O)C(=O)NCCCn2ccnc2)cc1 (configuration not stated),-0.0748
12,COc1nc(OCCNC(C)=O)nc(N(C)C)n1,-0.00356
13,CCN=c1scc(-c2ccc3c(c2)NC(=O)CO3)n1N=C1CCCC1,-0.0799
14,Cc1cccc(C)c1NC(=S)NCCCN1CCCC1=O,-0.0868
15,COc1ccc(NC(=O)/C=C/C(=O)O)cc1Cl,0.0641
16,CSc1nc2ccc(NC(=O)c3nn(C(C)C)c(=O)c4ccccc34)cc2s1,-0.391
17,O=C(NC(Cc1c[nH]c2ccccc12)c1nnc2n1CCCCC2)c1cccs1 (configuration not stated),0.999
18,Cc1ccc(-n2cc(C(=O)c3ccccc3O)cn2)cc1,1.71
19,Cn1c2c(c(=O)n(C)c1=O)C(c1cccc([N+](=O)[O-])c1)Nc1ccccc1O2 (configuration not stated),-0.0548
20,O=C(OCC(=O)N1CCc2ccccc21)c1ccc[n+]([O-])c1,0.176
